From PubChem BioAssay AID445 (National Center for Advancing Translational Sciences (NCATS), 2006)
Screen size: about 110,000 compounds; about 40 (0.04%) were called active. The inconclusive results got no clear call from the source; some entries with a clear call stand among them for comparison. The call rests on the fitted dose curve; in most records, active means well fitted curve in the direction sought with a large enough effect in the signal ratio (not every such curve was filed as active); inconclusive means small, poorly fitted or top-dose-only effect, or a change in a side signal; inactive means flat fitted curve, though single readings scatter; the % refers to the signal ratio. Potencies beside an inconclusive call are fits to weak or partial responses and may not hold up.
Potency means the concentration at half of the fitted maximal effect.

Experiment: IkB Signaling;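 on IkBa stabilization activation: 0% = basal untreated cells and 100% = reference inhibitor full response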
Conditions: ABC-DLBCL IkBa-CBG/CBR dual luciferase ratio (green luciferase fused to IkBa over red control in OCI-Ly3 lymphoma cells), 4 h; IkBa stabilization activation: at 57.1 µM (top of the series), scaled: untreated 0%, proteasome inhibitor 100% unless noted
In short: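 In this assay, an IκBα–CBG68 fusion accumulates when IKK-driven degradation is blocked; native CBR normalizes for cell number. OCI-Ly3 cells were treated 4 h with compound and doxycycline, then green and red light read after Chroma-Glo addition.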
For Cc1c(C(=O)N2CCOCC2)oc2c1-c1nn(CC(=O)NCc3cccc(Cl)c3)cc1CC2, the IkBa stabilization activation was inconclusive: -0.235% [signal inhibitor].
With CC(C)CCNC(=O)C(c1ccco1)N(CC1CCCO1)C(=O)Cn1nnc2ccccc21 (stereo not given) the “IkBa stabilization activation” value was inactive: 0.5%.
In the case of CCCCS(=O)(=O)c1oc(-c2ccc(F)cc2)nc1S(=O)(=O)c1ccc(C)cc1, the IkBa stabilization activation is reported as inconclusive: -3.07% [signal inhibitor].
In the case of O=C(NCc1cccc(F)c1)c1ccc(NC(=O)c2nsc3ccccc23)cc1, the Potency is reported as inconclusive: 10 µM [signal inhibitor, partial curve].
In the case of CC(C)(C)OC(=O)N1CCC(c2c(C(=O)NCCc3ccccc3)cnn2-c2ccc(F)cc2F)CC1, the IkBa stabilization activation is reported as inconclusive: -2.5% [signal inhibitor].
In the case of Cn1c(=O)oc2cc(S(=O)(=O)N3CCC(C(=O)N4CCN(c5ccccc5F)CC4)CC3)ccc21, the IkBa stabilization activation is reported as inconclusive: 1.98% [signal inhibitor].
For CCOC(=O)c1c(NC(=O)COc2cccc(C)c2C)sc2c1CCC(CC)C2 (stereo not given), the “IkBa stabilization activation” value was inactive: -0.0542%.
In the case of COc1cccc2oc(-c3ccc(O)cc3)cc(=O)c12, the IkBa stabilization activation is reported as inactive: 2.26% [at 11.4 µM, scaled: untreated 0%, proteasome inhibitor 100%].
For COc1cccc(N2CCN(S(=O)(=O)c3cc(-c4cc(C)no4)ccc3C)CC2)c1, the IkBa stabilization activation was inconclusive: -0.13% [signal inhibitor].
With CC(C)COc1ccc(C(=O)Nc2cc(-c3ccccc3)no2)cc1 the “IkBa stabilization activation” value was inactive: -1.92%.
For O=c1c2cn[nH]c2nc(SCc2c(F)cccc2F)n1-c1ccc(Cl)cc1, the IkBa stabilization activation was inconclusive: -3.41% [signal inhibitor].
With CCCCN(CC)CCCNC(=O)Cn1ncc2c([nH]c3ccc(C)cc32)c1=O the IkBa stabilization activation was inconclusive: -0.548% [signal inhibitor].
For O=C(c1ccco1)N1CCN(C(=O)C(Sc2ccccc2)c2ccccc2)CC1 (stereo not given), the IkBa stabilization activation was inconclusive: 3.23% [signal inhibitor].
With COc1ccc(N(CC(=O)N2CCN(c3ccc(F)cc3)CC2)S(=O)(=O)c2c(C)noc2C)cc1 the IkBa stabilization activation was inconclusive: 0.85% [signal inhibitor].
In the case of O=C(O)[C@@H](O)[C@@H](O)[C@@H](O)[C@@H](O)c1nc2ccccc2s1, the IkBa stabilization activation is reported as inactive: 0.299% [at 11.4 µM, scaled: untreated 0%, proteasome inhibitor 100%].
With CCOc1cccc(C(=O)Nc2nc3c(s2)CC(C(C)(C)C)CC3)c1 (stereo not given) the “IkBa stabilization activation” value was inactive: -1.6%.
For O=C(NCc1ccco1)c1ccc2c(c1)N(Cc1ccc(F)cc1)C(=O)c1ccccc1S2(=O)=O, the IkBa stabilization activation was inconclusive: 1.45% [signal inhibitor].
With CC(C)(C)c1cc(C(F)(F)F)nc(SCCCNC(=O)c2ccco2)n1 the IkBa stabilization activation was inconclusive: 4.99% [signal inhibitor].
In the case of Cc1cc(-c2ccccc2)nc(N2CCN(c3ccccn3)CC2)n1, the IkBa stabilization activation is reported as inconclusive: 5.21% [signal inhibitor].
With O=c1nc(N2CCOCC2)ccn1-c1nc(-c2ccccc2)oc1-c1ccccc1 the “IkBa stabilization activation” value was inactive: 2.06%.
With Nc1cc(C(=O)O)c(O)c(S(=O)(=O)O)c1 the “IkBa stabilization activation” value was inactive: 1.85%.
For CCSc1nncn1/N=C/c1ccc(OC)c(OC)c1, the “IkBa stabilization activation” value was inactive: -4.28%.
With Cc1cc(C)cc(OCC(=O)N2CCC(c3nc4ccccc4s3)CC2)c1 the IkBa stabilization activation was inconclusive: 7.08% [signal inhibitor].
In the case of CCCN1C(=O)C(Cc2nc3ccccc3c(=O)n2-c2ccc(OC)cc2)c2cc(C)ccc21 (stereo not given), the IkBa stabilization activation is reported as inconclusive: -0.234% [signal inhibitor].
For O=C(O)CC[C@@H](NC(=O)c1ccccc1C(=O)O)C(=O)O, the “IkBa stabilization activation” value was inactive: 6.01%.
For NC(=O)CSc1nc2ccc(NC(=O)COc3ccccc3Cl)cc2s1, the IkBa stabilization activation was inconclusive: 2.94% [signal inhibitor].
With C[C@H]1CN(S(=O)(=O)c2cccc3cnccc23)CCN1 the “IkBa stabilization activation” value was inactive: 0.317%.
In the case of Cc1cccc(-n2nc(C)c(C(=O)N3CCN(c4ccccc4)CC3)c2-n2cccc2)c1, the IkBa stabilization activation is reported as inconclusive: 8.08% [signal inhibitor].
In the case of COc1ccccc1C(=O)Nc1ccc(S(=O)(=O)Nc2ncccn2)cc1, the “IkBa stabilization activation” value is reported as inactive: -6.78%.
In the case of Cc1ccc(C)c(N2CCN(C(=O)C(CC(C)C)NS(=O)(=O)c3ccc4nc(C)sc4c3)CC2)c1 (stereo not given), the IkBa stabilization activation is reported as inconclusive: 0.819% [signal inhibitor].
With CC1=C(C(=O)O)N2C(=O)[C@@H](NC(=O)[C@@H](N)c3ccccc3)[C@@H]2SC1 the IkBa stabilization activation was “inactive”.
In the case of O=S(=O)(O)c1ccc2c(N=Nc3c(O)ccc4ccccc34)cccc2c1, the IkBa stabilization activation is reported as inactive: -1.66% [at 11.4 µM, scaled: untreated 0%, proteasome inhibitor 100%].
With CCOc1ccc(-c2cc(C(=O)NCCc3ccc(OC)c(OC)c3)c3c(-c4ccc(F)cc4)[nH]nc3n2)cc1 the “IkBa stabilization activation” value was inactive: -1.53%.
In the case of CCOC(=O)c1cnc2c(C)cccc2c1Nc1ccc(OC(C)C)cc1, the IkBa stabilization activation is reported as inconclusive: 1.69% [signal inhibitor].
In the case of Cc1cccc(OCCCn2c(CCNC(=O)C3CCCCC3)nc3ccccc32)c1, the IkBa stabilization activation is reported as inconclusive: -0.656% [signal inhibitor].
In the case of COc1ccc(-c2nn(-c3ccccc3)cc2C(=O)O)cc1, the “IkBa stabilization activation” value is reported as inactive: 8.2%.
In the case of COc1ccccc1CN(Cc1c(Cl)cccc1Cl)S(=O)(=O)c1ccc(Br)cc1, the IkBa stabilization activation is reported as inconclusive: 2.8% [signal inhibitor].
With Cc1ccccc1C(=O)NCc1ccncc1 the “IkBa stabilization activation” value was inactive: -0.0112%.
With Cc1ccc(Cn2c(=O)c3cccnc3n(CC(=O)Nc3cc(Cl)ccc3C)c2=O)cc1 the “IkBa stabilization activation” value was inactive: 0.286%.
With CCN1C=C(Cc2cccs2)C2=C(C1)C(c1cccs1)C(C#N)=C(N)O2 (stereo not given) the IkBa stabilization activation was inconclusive: 12.3% [signal inhibitor].
With Cc1c(Cl)cccc1NC(=O)C1CCN(c2nc3ccccc3[nH]2)CC1 the “IkBa stabilization activation” value was inactive: 0.0763%.
With COC(=O)c1sccc1S(=O)(=O)N(CC(=O)Nc1ccccc1)c1ccccc1 the IkBa stabilization activation was inconclusive: 12.8% [signal inhibitor].
For Cc1cc(C(=O)NCc2ccccc2Cl)c2c(C)nn(-c3cccc(F)c3)c2n1, the IkBa stabilization activation was inconclusive: 1.83% [signal inhibitor].
In the case of Cc1ccc2oc(=O)n(CCNC(=O)Nc3ccc(Cl)cc3)c2c1, the IkBa stabilization activation is reported as inconclusive: -0.0999% [signal inhibitor].
In the case of O=C(NCC(c1ccco1)S(=O)(=O)c1cccs1)c1ccc(Cl)cc1 (stereo not given), the IkBa stabilization activation is reported as inconclusive: -1.87% [signal inhibitor].
